Source: publication PMC6750928
Results are given in words; binding and its absence hold for the method and conditions named. Binding seen in cells or lysates may run through a third protein. Some binding calls cover weakened binding; strength is not graded here. For part of these data: Where a sequence is shown, tags or fusion partners need not be part of it.

Amino acid sequences for entries named in this document (tags omitted). Residues count along the entry.
UniProt P46093: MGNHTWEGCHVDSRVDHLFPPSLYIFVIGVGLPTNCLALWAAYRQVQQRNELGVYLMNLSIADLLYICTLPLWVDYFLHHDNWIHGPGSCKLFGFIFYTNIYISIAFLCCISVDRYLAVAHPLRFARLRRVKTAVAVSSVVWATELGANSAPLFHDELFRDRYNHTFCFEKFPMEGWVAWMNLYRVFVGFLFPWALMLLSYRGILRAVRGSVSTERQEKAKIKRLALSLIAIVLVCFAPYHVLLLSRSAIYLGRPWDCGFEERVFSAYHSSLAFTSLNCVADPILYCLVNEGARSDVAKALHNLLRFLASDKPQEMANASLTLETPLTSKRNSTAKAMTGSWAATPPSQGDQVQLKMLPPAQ
UniProt O15218: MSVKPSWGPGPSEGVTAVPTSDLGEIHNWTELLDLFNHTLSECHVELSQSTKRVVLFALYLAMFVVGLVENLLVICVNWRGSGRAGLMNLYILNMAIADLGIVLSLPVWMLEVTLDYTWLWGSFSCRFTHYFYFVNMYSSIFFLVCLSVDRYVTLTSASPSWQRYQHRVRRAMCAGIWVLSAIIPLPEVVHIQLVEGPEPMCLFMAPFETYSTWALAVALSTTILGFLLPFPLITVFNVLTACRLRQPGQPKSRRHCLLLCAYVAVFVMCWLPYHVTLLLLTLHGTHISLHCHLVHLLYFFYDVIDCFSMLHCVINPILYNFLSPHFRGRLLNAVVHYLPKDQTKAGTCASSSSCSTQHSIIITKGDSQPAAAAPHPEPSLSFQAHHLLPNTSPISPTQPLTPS
UniProt P41586, residues 24-468: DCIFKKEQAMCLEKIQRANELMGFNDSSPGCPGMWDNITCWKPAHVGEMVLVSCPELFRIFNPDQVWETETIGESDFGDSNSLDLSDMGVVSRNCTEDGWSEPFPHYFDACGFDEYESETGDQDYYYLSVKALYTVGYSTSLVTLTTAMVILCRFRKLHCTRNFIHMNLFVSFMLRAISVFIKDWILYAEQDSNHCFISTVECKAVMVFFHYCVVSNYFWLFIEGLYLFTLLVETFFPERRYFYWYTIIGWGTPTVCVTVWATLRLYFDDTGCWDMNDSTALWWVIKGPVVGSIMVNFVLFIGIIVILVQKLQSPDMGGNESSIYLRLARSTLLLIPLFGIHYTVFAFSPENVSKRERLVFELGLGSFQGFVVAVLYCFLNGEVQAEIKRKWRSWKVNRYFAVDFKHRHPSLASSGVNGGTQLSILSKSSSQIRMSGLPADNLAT
UniProt O60895, residues 43-175: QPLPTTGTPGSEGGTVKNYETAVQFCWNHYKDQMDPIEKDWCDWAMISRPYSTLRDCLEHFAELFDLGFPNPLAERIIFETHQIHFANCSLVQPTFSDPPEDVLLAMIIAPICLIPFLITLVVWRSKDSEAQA
UniProt O60894, residues 27-148: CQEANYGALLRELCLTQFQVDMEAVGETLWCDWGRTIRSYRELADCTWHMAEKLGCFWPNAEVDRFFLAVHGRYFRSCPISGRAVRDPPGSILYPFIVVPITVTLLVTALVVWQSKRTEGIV

Key:
Test in all cases: co-IP; multiplexed suspension bead array (SBA) immunoassay: clarified lysates (1% DM; 50 mM Hepes, 1 mM EDTA, 150 mM NaCl, 5 mM MgCl2, pH 7.4) of HEK293F cells cotransfected with tagged GPCR and RAMP, diluted to 50 ug/ml, incubated overnight at 4°C with bar-coded beads carrying anti-tag (HA, 1D4, FLAG, OLLAS), anti-GPCR or anti-RAMP Abs; the partner detected with a PE-conjugated anti-tag mAb; Luminex FlexMap 3D, MFI
[1] = molecular target: T1, VIP and PACAP receptor 2 (human) (UniProt P41587)
T1 sequence: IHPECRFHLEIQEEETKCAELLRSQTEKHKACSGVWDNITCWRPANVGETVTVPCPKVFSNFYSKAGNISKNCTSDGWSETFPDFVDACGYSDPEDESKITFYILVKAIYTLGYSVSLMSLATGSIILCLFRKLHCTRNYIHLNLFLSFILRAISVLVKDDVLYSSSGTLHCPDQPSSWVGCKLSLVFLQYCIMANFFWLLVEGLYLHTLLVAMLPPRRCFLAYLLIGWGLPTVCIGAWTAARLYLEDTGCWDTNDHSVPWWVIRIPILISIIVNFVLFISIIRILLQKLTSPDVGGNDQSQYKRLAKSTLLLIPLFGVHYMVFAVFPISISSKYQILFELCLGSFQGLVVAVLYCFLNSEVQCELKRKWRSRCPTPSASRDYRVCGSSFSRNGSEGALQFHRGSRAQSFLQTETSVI

[2] = molecular target: T2, Gastric inhibitory polypeptide receptor (human) (UniProt P48546)
T2 sequence: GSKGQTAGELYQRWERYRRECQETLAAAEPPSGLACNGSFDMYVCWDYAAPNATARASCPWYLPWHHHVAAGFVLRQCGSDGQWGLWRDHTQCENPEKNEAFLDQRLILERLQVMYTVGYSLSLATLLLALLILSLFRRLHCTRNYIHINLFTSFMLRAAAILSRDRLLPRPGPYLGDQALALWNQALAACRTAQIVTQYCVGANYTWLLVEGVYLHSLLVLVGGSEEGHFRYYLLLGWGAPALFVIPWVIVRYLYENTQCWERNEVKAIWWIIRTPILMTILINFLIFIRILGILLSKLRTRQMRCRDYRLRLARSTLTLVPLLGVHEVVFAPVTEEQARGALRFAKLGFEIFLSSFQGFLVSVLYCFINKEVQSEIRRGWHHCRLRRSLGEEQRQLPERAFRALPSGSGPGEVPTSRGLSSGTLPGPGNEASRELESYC

[3] = molecular target: G protein-coupled receptor 4 (human) (UniProt P46093)
[4] = molecular target: T3, Glucagon-like receptor 2 (human) (UniProt O95838)
T3 sequence: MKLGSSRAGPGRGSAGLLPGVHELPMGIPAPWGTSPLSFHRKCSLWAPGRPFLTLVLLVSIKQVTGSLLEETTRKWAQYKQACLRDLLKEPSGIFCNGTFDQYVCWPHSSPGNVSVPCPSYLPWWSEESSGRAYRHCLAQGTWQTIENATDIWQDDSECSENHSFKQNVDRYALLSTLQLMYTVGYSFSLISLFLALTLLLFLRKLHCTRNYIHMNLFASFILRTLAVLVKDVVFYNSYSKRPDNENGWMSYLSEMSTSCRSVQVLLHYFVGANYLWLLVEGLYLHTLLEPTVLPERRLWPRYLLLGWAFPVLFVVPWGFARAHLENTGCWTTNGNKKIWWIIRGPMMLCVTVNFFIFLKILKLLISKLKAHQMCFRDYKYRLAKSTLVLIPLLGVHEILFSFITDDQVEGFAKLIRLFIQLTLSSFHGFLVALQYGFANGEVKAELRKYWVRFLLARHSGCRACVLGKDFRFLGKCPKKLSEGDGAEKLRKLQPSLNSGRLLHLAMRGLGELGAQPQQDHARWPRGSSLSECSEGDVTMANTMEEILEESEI

[5] = molecular target: G protein-coupled receptor 182 (human) (UniProt O15218)
[6] = molecular target: Pituitary adenylate cyclase-activating polypeptide type 1 (human) (UniProt P41586)

Measured: binding

Receptor activity-modifying protein 2 (from UniProt O60895 43-175)
binds: all assays above

Receptor activity-modifying protein 1 (from UniProt O60894 27-148)
binds: all assays above

B1: Receptor activity-modifying protein 3 (protein, UniProt O60896 28-148)
chain: CNETGMLERLPLCGKAFADMMGKVDVWKWCNLSEFIVYYESFTNCTEMEANVVGCYWPNPLAQGFITGIHRQFFSNCTVDRVHLEDPPDEVLIPLIVIPVVLTVAMAGLVVWRSKRTDTLL
binds: all assays above
